These are yes or no findings as the source states them, for the method shown. In cells and extracts the contact can be indirect. Some results given as binding are weak or reduced against the parent protein; the word gives no strength. Each block holds one substance with its values, some of them ahead of it.
Assays:
[1] = biological target: phosphorylated histone H2AX (γ-H2AX, p-S139) (human (endogenous in M059K)) (UniProt P16104); assay: proximity ligation; in situ PLA on fixed M059K cells grown on cover slips, endogenous proteins, two primary antibodies for each pair; cells untreated or with 0.5 μg/ml NCS for 1 hour, with scramble siRNA or siRNA against CK2α/α'; signals per cell counted with BlobFinder
[2] = biological target: protein kinase CK2 catalytic subunit α (CK2α), endogenous (human (endogenous in HCT116 and M059K)) (UniProt P68400); assay: co-IP; lysates of HCT116 and M059K cells precipitated with rabbit polyclonal anti-CK2α serum, blot for DNA-PKcs; cells untreated or treated with NCS
[3] = biological target: protein kinase CK2 catalytic subunit α' (CK2α') (human (endogenous in M059K and HCT116)) (UniProt P19784); assay: as above
[4] = biological target: protein kinase CK2 catalytic subunit α' (CK2α') (human (endogenous in M059K and HCT116)) (UniProt P19784); assay: proximity ligation; in situ PLA on fixed M059K cells grown on cover slips, endogenous proteins, two primary antibodies for each pair; cells untreated or with 0.5 μg/ml NCS for 1 hour, with scramble siRNA or siRNA against CK2α/α'; signals per cell counted with BlobFinder
[5] = biological target: DNA-PKcs Fragment C (aa 2005-2555), Myc-tagged (human (cDNA from HCT116 cells)) (UniProt P78527); assay: co-IP; 500 μg whole extract of Cos-1 cells expressing a Myc-tagged DNA-PKcs fragment incubated with 0.5 μg purified human recombinant CK2α; precipitated with rabbit monoclonal anti-Myc, blot for CK2α and Myc; only the binder purified
[6] = biological target: DNA-PKcs Fragment D (aa 2768-3258), Myc-tagged (human (cDNA from HCT116 cells)) (UniProt P78527); assay: as above
[7] = biological target: DNA-PKcs Fragment E (aa 3414-4123), Myc-tagged (human (cDNA from HCT116 cells)) (UniProt P78527); assay: condition: 0.5 μg recombinant CK2α with 500 μg extract; co-IP; 500 μg whole extract of Cos-1 cells expressing a Myc-tagged DNA-PKcs fragment incubated with 0.5 μg purified human recombinant CK2α; precipitated with rabbit monoclonal anti-Myc, blot for CK2α and Myc; only the binder purified

Amino acid sequences for entries named in this document (tags omitted). A change or cut given only in a name is not applied to a line headed by its entry. Chains listed by the source or under a name are the forms on record and can include a tag or linker. Residues count along the entry.
UniProt P68400: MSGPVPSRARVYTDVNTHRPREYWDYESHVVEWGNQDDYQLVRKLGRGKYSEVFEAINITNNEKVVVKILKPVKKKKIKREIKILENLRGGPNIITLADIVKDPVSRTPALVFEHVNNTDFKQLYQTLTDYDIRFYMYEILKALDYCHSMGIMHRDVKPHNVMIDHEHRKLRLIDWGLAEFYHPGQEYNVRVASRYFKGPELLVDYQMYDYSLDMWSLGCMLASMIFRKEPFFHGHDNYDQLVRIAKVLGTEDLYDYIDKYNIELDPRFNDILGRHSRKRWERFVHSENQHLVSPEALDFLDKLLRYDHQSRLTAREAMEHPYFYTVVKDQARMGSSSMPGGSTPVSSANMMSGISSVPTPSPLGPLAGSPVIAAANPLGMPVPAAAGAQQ
DNA-PKcs Fragment C (aa 2005-2555), Myc-tagged (human (cDNA from HCT116 cells)) (P78527, residues 2005-2555): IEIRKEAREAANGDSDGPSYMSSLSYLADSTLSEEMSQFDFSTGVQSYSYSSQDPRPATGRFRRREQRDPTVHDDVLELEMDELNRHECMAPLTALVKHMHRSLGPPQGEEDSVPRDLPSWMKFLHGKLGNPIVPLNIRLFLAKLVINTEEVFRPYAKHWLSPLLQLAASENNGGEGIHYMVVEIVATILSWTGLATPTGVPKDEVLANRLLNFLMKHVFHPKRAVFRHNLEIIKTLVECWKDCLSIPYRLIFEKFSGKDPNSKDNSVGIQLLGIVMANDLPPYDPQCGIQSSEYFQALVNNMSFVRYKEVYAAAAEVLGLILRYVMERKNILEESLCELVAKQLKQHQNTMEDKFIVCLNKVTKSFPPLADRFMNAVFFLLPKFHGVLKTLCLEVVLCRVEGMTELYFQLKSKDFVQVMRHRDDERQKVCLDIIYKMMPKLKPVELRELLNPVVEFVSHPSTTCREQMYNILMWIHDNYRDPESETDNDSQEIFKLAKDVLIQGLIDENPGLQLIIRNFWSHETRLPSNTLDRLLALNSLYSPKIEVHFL
DNA-PKcs Fragment D (aa 2768-3258), Myc-tagged (human (cDNA from HCT116 cells)) (P78527, residues 2768-3258): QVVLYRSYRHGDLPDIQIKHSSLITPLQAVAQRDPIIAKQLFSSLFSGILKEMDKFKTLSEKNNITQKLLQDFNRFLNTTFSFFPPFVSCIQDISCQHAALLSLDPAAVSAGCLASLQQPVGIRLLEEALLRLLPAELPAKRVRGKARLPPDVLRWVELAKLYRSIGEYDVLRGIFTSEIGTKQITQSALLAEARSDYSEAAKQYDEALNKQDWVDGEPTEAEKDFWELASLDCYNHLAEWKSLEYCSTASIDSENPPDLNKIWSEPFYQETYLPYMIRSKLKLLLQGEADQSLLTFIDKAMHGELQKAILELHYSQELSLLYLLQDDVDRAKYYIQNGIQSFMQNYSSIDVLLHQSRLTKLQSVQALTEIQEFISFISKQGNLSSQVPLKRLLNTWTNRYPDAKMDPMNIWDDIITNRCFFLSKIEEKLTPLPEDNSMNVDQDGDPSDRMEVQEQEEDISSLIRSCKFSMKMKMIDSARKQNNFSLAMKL

binding [1]: binds
Substance: protein kinase CK2 catalytic subunit α' (CK2α') (from UniProt P19784 1-350) (enzyme)

binding [2]: binds | binding [3]: binds | binding [4]: binds
Substance: catalytic subunit of the DNA-dependent protein kinase (DNA-PKcs) (from UniProt P78527 1-4128) (enzyme)

binding [5]: binds | binding [6]: binds | binding [7]: no binding
Substance: human recombinant CK2α (from UniProt P68400 1-391) (enzyme)

From paper PMC3316135
